# Source: patent publication US20050214830A1, “G protein-binding proteins and polynucleotides encoding the same” (Wyeth, priority 1998, published 2005)
# What was measured:
# [1] = target: T1, rat Gαo (Rattus norvegicus, UniProt P59215); assay: Yeast 2-hybrid (Y2H) bioassay for BBP interaction with Gαo; conditions: BBP intracellular loop as Gal4 DNA-binding domain fusion; C-terminal region of Gα as Gal4 activation domain fusion; compared to vector
# T1 construct: fusion proteins containing C-terminal regions of Gα proteins in Y2H assays; expressed in transfected cells; host or cells: yeast strain CY770, plasmid pACT2
# T1 sequence (P59215 213-354 limits assumed): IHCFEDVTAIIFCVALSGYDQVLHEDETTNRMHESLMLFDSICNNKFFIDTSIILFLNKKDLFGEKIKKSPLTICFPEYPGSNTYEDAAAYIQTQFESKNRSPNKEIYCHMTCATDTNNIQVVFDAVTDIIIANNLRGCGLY
# From the text: (§1) Yeast 2-hybrid assays. Y2H expression plasmids were constructed in the vectors pAS2 and pACT2 (Wade Harper et al., 1993). Strain CY770 (Ozenberger and Young, 1995) served as the host for Y2H assays. Sequences encoding the BBPI intracellular loop were amplified using the oligonucleotides 5′-CCTTCC ATGGAAGTGGCAGTCGCATTGTCT [SEQ ID NO:24] plus 5′-AACACTCGAG TCAAAACCCTACAGTGCAAAAC [SEQ ID NO:25]. This product, containing BBP1 codons 185 to 217, was digested with NcoI+XhoI and cloned into pAS2 cleaved with NcoI+SaII to generate pOZ339. Sequences encoding the BBP2 intracellular loop were amplified using the oligonucleotides 5′-CCATG GCCACTTTACTCTACTCCTTCTT [SEQ ID NO:26] plus 5′-CTCGAG TCA AAT CCC MG TCC TCC MG CG [SEQ ID NO:27]. […]
# (§2) The various combinations of plasmids were transformed into strain CY770 by standard protocols. […] Cells were concentrated by centrifugation, counted and 10-fold serial dilutions made from 10^4 to 10^8 cells per ml in sterile water. […]
# (§3) BBP1 contains a structural motif known to be a Gα protein activating sequence in the related G protein-coupled receptors. The intracellular sequences of each BBP were expressed as fusion proteins and assayed. for physical interactions with fusion proteins containing C-terminal regions of Gα proteins in Y2H assays.
# [2] = tested on: Human Ntera2 (Nt2) stem cells; assay: Staurosporine-induced nuclear condensation (apoptosis) in transfected Nt2 stem cells; format: cell-based; conditions: recombinant expression in Nt2 stem cells, 100 nM staurosporine for 3 hrs
# From the text: Mammalian expression plasmids. BBP cDNAs were modified by polymerase chain reaction (PCR) for expression from the vector pcDNA3.1 (Invitrogen Corp., Carlsbad, Calif.). BBP1 cDNA was amplified from pBBP1-fl (ATCC #98617); from the third potential translation start site to the translation stop codon, adding a 5′ EcoRI and a 3′ SaII site for cloning. The BBP1 cDNA contains three potential translation starts (codons 1, 30, and 63). The third start site was chosen for the described experiments because the first two potential initiating codons lack appropriate sequence context for efficient translation initiation (see Kozak, 1996), and based on similarities of the protein derived from the third start site with a putative BBP1 orthologue from Drosophila melanogaster (Genbank accession M941984). FIG. 1 depicts this minimal BBP1 translation product to optimize the alignment with the other BBP subtypes. The PCR primers were 5′-TGGTGAATTC GAAAGTGTCG GTCTCAACG ATG G [SEQ ID NO:36] (+strand) and 5′-CTTCGTCGAC TTATGGATATAATTGCGTTTTTC [SEQ ID NO:37] (−strand). The PCR product was digested with EcoRI+SaII and cloned into pcDNA3.1/EcoRI−XhoI to create pOZ363. BBP2 and BBP3 expression plasmids were similarily engineered. […]
# [3] = target: T2, rat Gαi2 (Rattus norvegicus, UniProt P04897); assay: Yeast 2-hybrid (Y2H) bioassay for BBP interaction with Gαi2; conditions: BBP intracellular loop as Gal4 DNA-binding domain fusion; C-terminal region of Gα as Gal4 activation domain fusion; compared to vector
# T2 construct: fusion proteins containing C-terminal regions of Gα proteins in Y2H assays; expressed in transfected cells; host or cells: yeast strain CY770, plasmid pACT2
# T2 sequence (P04897 213-355 limits assumed): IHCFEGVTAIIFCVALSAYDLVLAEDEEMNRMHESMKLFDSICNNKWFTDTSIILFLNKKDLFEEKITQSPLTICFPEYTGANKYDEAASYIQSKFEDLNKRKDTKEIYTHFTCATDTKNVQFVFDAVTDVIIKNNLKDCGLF
# From the text: as §1, §2, §3
# [4] = target: T3, rat Gαs (Rattus norvegicus, UniProt P63095); assay: Yeast 2-hybrid (Y2H) bioassay for BBP interaction with Gαs; conditions: BBP intracellular loop as Gal4 DNA-binding domain fusion; C-terminal region of Gα as Gal4 activation domain fusion; compared to vector
# T3 construct: fusion proteins containing C-terminal regions of Gα proteins in Y2H assays; expressed in transfected cells; host or cells: yeast strain CY770, plasmid pACT2
# T3 sequence (P63095 235-394 limits assumed): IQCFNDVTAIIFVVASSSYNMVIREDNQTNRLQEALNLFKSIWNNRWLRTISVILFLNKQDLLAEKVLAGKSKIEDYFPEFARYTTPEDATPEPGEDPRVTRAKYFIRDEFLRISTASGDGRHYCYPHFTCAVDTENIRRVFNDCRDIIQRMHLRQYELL
# From the text: as §1, §2, §3
molecule,measurement,setting,value
"BBP2: 214 amino acid BBP family protein, SEQ ID NO:4; expressed from pFL11 (protein, listed as Homo sapiens) MVLGGCPVSYLLLCGQAALLLGNLLLLHCVSRSHSQNATAEPELTSAGAAQPEGPGGAASWEYGDPHSPVILCSYLPDEFIECEDPVDHVGNATASQELGYGCLKFGGQAYSDVEHTSVQCHALDGIECASPRTFLRENKPCIKYTGHYFITTLLYSFFLGCFGVDRFCLGHTGTAVGKLLTLGGLGIWWFVDLILLITGGLMPSDGSNWCTVY",physical interaction with Gαo (Y2H growth response),[1],no apparent association
same,"suppression of staurosporine-induced nuclear condensation (antiapoptotic activity), in words",[2],suppressed the induction of nuclear condensation to the same levels as BBP1
same,physical interaction with Gαi (Y2H growth response),[3],no apparent association
same,physical interaction with Gαs (Y2H growth response),[4],preferential interactions
